Hit rate of the full screen: of about 48,000 compounds, about 120 (0.25%) were called active. Another 4% or so got no clear call; they are omitted. The call rests on the fitted dose curve; in most records, active means well fitted activation curve with a large enough effect; inconclusive means small, poorly fitted or top-dose-only effect, or another doubt; inactive means no such curve, though single readings can be large or run the other way. The list shows a part of the results.
Assay: Primary qHTS for Identification of Small Molecule Activators of Huntingtin-Antisense Promoter Activity; further: nearly all actives have a fitted effect of over 55% in size
Conditions: HEK293 HTT-AS promoter firefly luciferase reporter (activity 0% = vehicle and -100% = no light), 24 h; series mostly up to 57.5 µM; activity change, positive = activation: at the top concentration
Procedure, shortened: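 HEK293 Fluc reporter, 2,500 cells/well, 24 h pre-culture; cpds up to 57.5 uM final, 24 h 37 degrees C; Dual-Glo, 10 min RT; normalized vehicle = 0%, zero RLU = -100%.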

Structure (SMILES) | activity change, positive = activation
CSc1ccc(-c2nc3ncccn3c2Nc2ccc(C)c(C)c2)cc1 | inactive: -18.8%
Nc1cc(=O)nc(SCC(=O)Nc2cccc(Cl)c2)n1CCc1ccccc1 | inactive: -36.3%
Cc1cc(C)c2c(=O)cc(CSc3nnc(COc4ccccc4C)n3C)[nH]c2c1 | inactive: -11.2%
O=c1cc(-c2ccccc2)c2cc(Cl)c3c(c2o1)CN(Cc1ccccc1)CO3 | inactive: -21.7%
CN1CCCN=C1COC(=O)C(O)(c1ccccc1)C1CCCCC1 (centres undefined) | inactive: -4.31%
CCOC(=O)c1ccc(N2C(=O)c3n[nH]c(-c4cccs4)c3C2c2ccc(C(C)C)cc2)cc1 (centres undefined) | inactive: -51.4%
COc1ccc(CC(=O)NCc2ccc3c(c2)CCN3C(=O)c2ccc(Cl)cc2)cc1OC | inactive: -26.5%
Cc1ccc2c(c1)c1c(c(=O)n(-c3ccccc3C)c(=O)n1CC(=O)NCc1ccccc1)n2C | inactive: -15.7%
Cc1cc(-c2ccc(C)c(S(=O)(=O)N(C)c3ccc(C)c(C)c3)c2)on1 | inactive: -37.9%
COc1ccccc1NC(=O)Cn1c(=O)n(Cc2ccco2)c(=O)c2cccnc21 | inactive: -23.5%
Cc1ccc(OCCCn2c(CCNC(=O)C3CCCCC3)nc3ccccc32)c(C)c1 | inactive: -4.21%
CCOC(=O)c1c(Oc2ccc(OC)cc2)nnc(-c2ccccc2)c1-c1ccccc1 | inactive: -19%
COc1ccc(OC)c(NC(=O)CN2C(=O)c3ccccc3Sc3ccc(C(=O)N4CCCC4)cc32)c1 | inactive: -29.9%
COc1ccc(N(Cc2cccs2)C(=O)Nc2ccccc2)cc1 | inactive: -16.4%
CCS(=O)(=O)c1ncc(Cl)c(C(=O)N2CCN(c3cccc(Cl)c3)CC2)n1 | inactive: -94.6%
NC(=O)C1(N2CCCCC2)CCN(C(=O)Nc2ccc(C(F)(F)F)cc2)CC1 | inactive: -15.5%
Cc1ccc(NCc2ccccc2-c2nnc(-c3ccccc3Cl)o2)c(C)c1 | inactive: 7.52%
Cc1ccc(CNS(=O)(=O)c2cc(C(=O)Nc3cccc(C(F)(F)F)c3)ccc2F)cc1 | inactive: -18.5%
CC(C)(Oc1ccc(Cl)cc1)C(=O)O | inactive: -1.21%
COCCCNC(=O)C(=O)NCC(c1ccc2c(c1)OCO2)N1CCOCC1 (centres undefined) | inactive: -16%
CCN1C(=O)c2ccccc2S(=O)c2ccc(C(=O)NCc3ccc(F)cc3)cc21 (centres undefined) | inactive: -27.3%
COc1ccc(NC(=O)C2=C(C)Nc3nc(CCCO)nn3C2c2ccc(O)cc2)cc1 (centres undefined) | inactive: 5.27%
Cc1ccc(C)c(S(=O)(=O)c2nnn3c2nc(N2CCOCC2)c2sccc23)c1 | inactive: -5.27%
CC(C)N(Cc1ccccc1)c1ncnc2c1nnn2C | inactive: -14.7%
CCOc1ccc(C(c2c(O)cc(C)n(CCOC)c2=O)N2CCN(c3ccccc3F)CC2)cc1 (centres undefined) | inactive: -14.1%

Structure (SMILES) | activity change, positive = activation
COc1ccccc1-c1nnc(SCCOc2ccccc2C)o1 | inactive: 0.768%
CCc1cccc(CC)c1NS(=O)(=O)c1ccc2c(c1)CCN2C(=O)C1CC1 | inactive: -26.3%
CC(C)c1ccc(S(=O)(=O)c2cnc(SCC(=O)Nc3cccc(C(F)(F)F)c3)nc2N)cc1 | inactive: -39.3%
CCOC(=O)c1cc(-c2ccc(OC)c(S(=O)(=O)Nc3ccc(OC)cc3OC)c2)on1 | inactive: -11.7%
Cc1ccc(CNC(=O)c2nnc(Cc3cccc(F)c3)o2)cc1 | inactive: -15%
COC(=O)c1sccc1S(=O)(=O)N1CCN(c2ccccc2OC)CC1 | inactive: -9.93%
O=C(Nc1ccc2nc(SCCOc3ccccc3Cl)sc2c1)c1cccs1 | inactive: -14.6%
COc1ccc(N2CC(C(=O)Nc3ccc(NC(C)=O)cc3)CC2=O)cc1 (centres undefined) | inactive: -5.13%
O=C(NCc1ccc(Cl)cc1)C1CCCN(C(=O)c2cnn(-c3ccc(F)cc3)c2-n2cccc2)C1 (centres undefined) | inactive: -37.2%
O=C(CCn1c(=O)c2cccn2c2ccc(F)cc21)NCCc1ccccc1 | inactive: -18.1%
Cc1ccc(C)c(Nc2cc(C(=O)NC3CCCCC3)c3ccccc3n2)c1 | inactive: -4.44%
CCC(=O)N1CCc2cc(CNC(=O)C(CC)c3ccccc3)ccc21 (centres undefined) | inactive: 1.53%
CCc1cccc(NC(=O)CCc2c(C)nc3c(c2C)c(=O)n(C)c(=O)n3C)c1 | inactive: -34.5%
Cc1ccc(CNC(=O)CCSCc2ccccc2F)cc1 | inactive: -14.1%
O=C(NCc1cccnc1)c1nn(-c2ccccc2F)nc1CO | inactive: -38.9%
CC(=O)N(CC(=O)N(C)C)c1ccccc1 | inactive: -25.1%
Cc1cc(C)c2oc(C(=O)Nc3sc4c(c3C(=O)NCc3ccco3)CCCC4)cc(=O)c2c1 | inactive: 0.346%
Cc1ccc(N(C(=O)COc2ccccc2C)S(=O)(=O)c2ccc(Cl)cc2)cc1 | inactive: -17%
Cc1ccc(Nc2c(-c3cc(Br)ccc3F)nc3cc(C)ccn23)cc1 | inactive: -25.4%
COc1ccccc1NC(=O)Cn1c(=O)n(-c2ccc(C)cc2)c(=O)c2ccc(C(=O)NCc3ccco3)cc21 | inactive: -22%
CCOc1ccc(NC(=O)N2CCC(CN3CCc4ccccc4C3)CC2)cc1 | inactive: -5.37%
CCOCCCNC(=O)c1ccc(NC(=O)N2CCCCc3ccccc32)cc1 | inactive: -12%
COc1ccccc1N1CCN(c2ccc(=O)n(CC(=O)Nc3ccc(F)c(F)c3)n2)CC1 | inactive: -21.5%
Cc1nc(-c2ccc(Cl)cc2)sc1CCNC(=O)c1ccc(C(F)(F)F)cc1 | inactive: -7.63%

— PubChem BioAssay AID1508624 (National Center for Advancing Translational Sciences (NCATS), 2021)
